# Among all 310,000 compounds or so, about 2,200 (0.71%) showed an effect of 50% or more. Effects have a minus sign here. The list shows a part of the results.
# Biological target: human ether-à-go-go-related gene (hERG) potassium channel (human, UniProt Q12809)
# Experiment: primary screen, population patch clamp on CHO cells stably expressing hERG
# Chain of human ether-à-go-go-related gene (hERG) potassium channel (Q12809 whole entry, looked up): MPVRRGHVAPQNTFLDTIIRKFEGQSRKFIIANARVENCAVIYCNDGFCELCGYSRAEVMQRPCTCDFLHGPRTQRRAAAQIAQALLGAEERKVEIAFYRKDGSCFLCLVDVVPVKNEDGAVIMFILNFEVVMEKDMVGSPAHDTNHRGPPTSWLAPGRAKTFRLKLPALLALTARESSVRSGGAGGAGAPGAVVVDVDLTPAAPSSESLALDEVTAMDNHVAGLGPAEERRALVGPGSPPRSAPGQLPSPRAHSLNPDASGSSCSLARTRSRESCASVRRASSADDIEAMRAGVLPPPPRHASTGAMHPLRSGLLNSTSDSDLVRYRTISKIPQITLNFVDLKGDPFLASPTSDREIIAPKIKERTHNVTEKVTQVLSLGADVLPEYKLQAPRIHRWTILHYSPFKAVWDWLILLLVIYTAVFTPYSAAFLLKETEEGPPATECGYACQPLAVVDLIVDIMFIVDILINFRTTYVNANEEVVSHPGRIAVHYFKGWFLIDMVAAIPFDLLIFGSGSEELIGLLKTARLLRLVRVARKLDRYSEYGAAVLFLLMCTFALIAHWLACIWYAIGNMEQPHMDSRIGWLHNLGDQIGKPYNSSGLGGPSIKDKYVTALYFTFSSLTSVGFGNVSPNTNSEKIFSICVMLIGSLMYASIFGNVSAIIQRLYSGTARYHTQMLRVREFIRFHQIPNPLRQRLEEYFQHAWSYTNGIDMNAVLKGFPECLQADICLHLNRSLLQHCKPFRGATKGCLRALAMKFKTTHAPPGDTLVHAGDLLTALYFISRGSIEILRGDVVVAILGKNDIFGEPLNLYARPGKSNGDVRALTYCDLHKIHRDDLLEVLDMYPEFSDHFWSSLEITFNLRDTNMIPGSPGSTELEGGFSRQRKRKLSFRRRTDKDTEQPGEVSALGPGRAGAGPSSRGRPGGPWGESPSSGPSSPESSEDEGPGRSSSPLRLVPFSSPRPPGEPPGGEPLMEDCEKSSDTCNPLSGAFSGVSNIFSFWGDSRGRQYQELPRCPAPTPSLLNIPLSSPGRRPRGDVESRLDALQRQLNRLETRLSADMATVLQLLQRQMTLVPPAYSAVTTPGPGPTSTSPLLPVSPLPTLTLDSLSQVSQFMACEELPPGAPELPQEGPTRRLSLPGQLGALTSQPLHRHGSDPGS
row,Structure (SMILES),"hERG current change (%, negative = inhibition) at 1uM [%]"
1,CCN(Cc1ccc(OC)c(F)c1)C(=O)C1CCCO1 (centres unmarked),18.7
2,COc1nc(N2CCOCC2)nc(C)c1[N+](=O)[O-],5.25
3,C/C(=N\Nc1ccccc1Cl)c1ccc(-n2ccnc2)cc1,7.67
4,CN=C1SC(CC(=O)Nc2sc3c(c2C#N)CCCC3)C(=O)N1C (centres unmarked),20.4
5,COC(=O)C1CCCCN1C(=O)c1ccc2oc(C(C)C)nc2c1 (centres unmarked),11.6
6,COc1cccc(C(=O)N2CCN(Cc3ccccn3)CC2)c1.O=C(O)C(=O)O,18
7,Cc1ccnc(NC(=O)CCC(=O)N(CC(=O)NC(C)(C)C)c2ccc3c(c2)OCCO3)c1,13.7
8,O=C(O)c1c(Cl)cccc1Cl,16.6
9,CCc1nnc(NC(=O)C23CC4CC(CC(C4)C2)C3)s1,14.8
10,CC(Sc1nnnn1-c1ccccc1)C(=O)NC1CCCC1 (centres unmarked),3.59
11,CC1=CSC2=NC(C(F)(F)F)(C(F)(F)F)NC(=O)N12,9.38
12,CCOc1ccc(NC(=O)CN(C)C(=O)c2ccc(OCC3CCCO3)cc2)cc1OCC (centres unmarked),2.54
13,Cc1ccc(-n2ncc3ccccc3c2=O)cc1Cl,2.9
14,Cc1cc(O)c(-c2n[nH]c3c2C(c2cccc(O)c2)N(Cc2cccnc2)C3=O)cc1Cl (centres unmarked),14.9
15,O=C(NCCc1ccccc1)c1n[nH]c2ccccc12,10.5
16,O=C1c2ccccc2C(Nc2ccccc2)N1c1cccnc1 (centres unmarked),-6.69
17,COC(=O)CSc1[nH]c2cc(C)ccc2c1[N+](=O)[O-],17.9
18,COc1cc2c(cc1NC(=O)CSc1nc3ccccc3[nH]1)oc1ccccc12,22.5
19,Cc1nc(C(=O)N2CCc3c([nH]c4ccccc34)C2c2ccccn2)cs1 (centres unmarked),14.7
20,COCCn1c(SC(C(=O)Nc2cc(C)ccc2OC)c2ccccc2)nnc1-c1ccc(Cl)cc1 (centres unmarked),4.16
21,C#CC[N+]1(CC#Cc2ccccc2)CCOCC1.[I-],8.62
22,Cn1c(=O)c2c(nc(NCCNC(=O)c3ccco3)n2Cc2ccccc2)n(C)c1=O,6.97

row,Structure (SMILES),"hERG current change (%, negative = inhibition) at 1uM [%]"
1,COc1ccc(S(=O)(=O)N2CCOCC2)cc1NC(=O)c1cccs1,8.63
2,O=C(CN1CCN(c2ccccc2F)CC1)N1N=CCC1c1ccccc1 (centres unmarked),7.86
3,CCN(CC)S(=O)(=O)c1cc(NC(=O)CSc2nc3c(cc2C#N)C(=O)CC(C)(C)C3)ccc1C,11.5
4,Cc1ccc(OCc2cc(C(=O)NC(C)Cc3cccc(C)n3)no2)cn1 (centres unmarked),17.6
5,CC(C)=NOC(=O)c1ccc(-c2ccccc2)cc1,13.4
6,O=C(NCc1ccccc1)/C(=N\O)c1ccccc1,10.3
7,Cc1ccc(NS(=O)(=O)c2ccc(-c3coc(C)n3)cc2)c(C)c1,11.9
8,O=C(NCCN1C(=O)S/C(=C\c2ccccc2Cl)C1=O)C1=COCCO1,-1.44
9,Br.CC(=O)Nc1nc(C)c(-c2csc(Nc3ccc(O)cc3)n2)s1,-6.54
10,Cc1cccc(NC(=O)Cn2cnc3c(cnn3-c3ccc(F)cc3)c2=O)c1C,17.4
11,O=c1c2ccccc2c(-c2n[nH]c(=S)o2)nn1Cc1ccccc1,21.9
12,CC(C)(C)OC(=O)Nc1ccc([C@@H](NC(=O)OC(C)(C)C)C(=O)OC(C)(C)C)cc1,12.7
13,Cc1ccc(OCC(=O)Nc2nnc(S(=O)(=O)N3CCCCCC3)s2)cc1C,14.7
14,c1c2c(cc3sc(N4CCCCC4)nc13)OCCO2,8.59
15,COc1ccc(N2CCN(C(=O)Cn3nnc(-c4ccc(OC)c(OC)c4)n3)CC2)cc1,9.91
16,Cc1cccc(OCC(=O)NCc2nc(-c3ccccc3)no2)c1,17.3
17,Cc1ccc(OCC(O)Cn2c(=N)n(Cc3ccccc3)c3ccccc32)cc1.Cl (centres unmarked),-61
18,CNC(=S)N/N=C/c1cccc(OCc2ccccc2F)c1,15.4
19,COCCN(C(=O)CSc1nncn1-c1ccccc1)c1c(N)n(Cc2ccccc2)c(=O)[nH]c1=O,13.6
20,O=C(NCc1ccc2c(c1)OCO2)c1ccc2c(c1)OCO2,9.66
21,Cc1cc(C(=O)CN2C(=O)C(=O)N(Cc3ccccc3)C2=O)c(C)n1-c1ccccc1F,12.3
22,CCc1ccc(CN2CCCC(C(=O)Nc3ccccc3-c3ccc(OC)cc3)C2)o1 (centres unmarked),5.8

# Source: article PMC4336329 (PLoS ONE, 2015)
